Measured values from the supplement of paper PMC10600219.
Structures can show the parent of a compound that is named as a salt. The full ranking holds about 2,800 compounds; the median of “cell viability relative to vehicle” is about 1.1, and the lowest 2% start at about 0.19. This is one part of the list.

What follows are compounds tested on NCI-H2228 parental (assay: cell viability relative to vehicle (fraction of vehicle); NCI-H2228 is an ALK-positive lung cancer line and DTP means drug-tolerant persister; higher = less growth inhibition). Settings: 100 nM; treatment time 6 days.
Method in brief: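 Parental NCI-H2228 cells and drug-tolerant persister cells (made with 1000 nM of a targeted drug for 13 days) were seeded in 384-well plates. The next day, the 3114-agent TargetMol anti-cancer compound library was added at 100 nM, with DMSO as vehicle. After 6 days, ATP was read with the CellTiter-Glo 3D Cell Viability Assay. Each value is cell viability relative to vehicle-treated cells.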

| SMILES | cell viability |
| --- | --- |
| CC[C@H](C)[C@@H]([C@@H](CC(=O)N1CCC[C@H]1[C@H](OC)[C@@H](C)C(=O)N[C@@H](Cc1ccccc1)C(=O)O)OC)N(C)C(=O)[C@@H](NC(=O)[C@@H](NC)C(C)C)C(C)C [MonoMethyl auristatin F] | 0.192 |
| COC(=O)c1ccc(N2CCN(C)CC2)c(NC(=O)c2cccc(OC)c2)c1 | 0.995 |
| CCOC(=O)NCCCC(=O)NCCc1ccccc1 [SantacruzaMate A] | 0.974 |
| CCC[C@H](NC(=O)/C(C#N)=C/c1cccc(Br)n1)c1ccccc1 [Degrasyn] | 1.05 |
| CNCCC=C1c2ccccc2CCc2ccccc21 [Nortriptyline hydrochloride] | 0.887 |
| OC[C@H]1O[C@@H](OCCc2ccc(O)cc2)[C@H](O)[C@@H](O)[C@@H]1O [Salidroside] | 0.996 |
| C[C@H](O)[C@H]1CC[C@H]2[C@@H]3CC[C@@H]4C[C@H](O)CC[C@]4(C)[C@H]3CC[C@]12C [5Beta-Pregnane-3Alpha,20alpha-Diol] | 1.25 |
| C[C@H]1[C@H](NC(=O)/C(=N\OC(C)(C)C(=O)O)c2csc(N)n2)C(=O)N1S(=O)(=O)O [Aztreonam] | 1.1 |
| CCc1c2c(nc3ccc(OC(=O)N4CCC(N5CCCCC5)CC4)cc13)-c1cc3c(c(=O)n1C2)COC(=O)[C@]3(O)CC [Irinotecan] | 0.939 |
| CCc1c2c(nc3ccc(OC(=O)N4CCC(N5CCCCC5)CC4)cc13)-c1cc3c(c(=O)n1C2)COC(=O)[C@]3(O)CC [Irinotecan hydrochloride trihydrate] | 1.11 |
| CC(=O)Nc1ccc(S(=O)(=O)Nc2ccc([N+](=O)[O-])cc2)cc1 [Sulfanitran] | 1.03 |
| CCc1cc(C(N)=S)ccn1 [Ethinamide] | 0.845 |
| O=C(NC(NC(=S)Nc1ccc(F)c([N+](=O)[O-])c1)C(Cl)(Cl)Cl)C(c1ccccc1)c1ccccc1 (stereo not given) | 1.07 |
| CN(N=O)C(=O)N[C@@H](C=O)[C@@H](O)[C@H](O)[C@H](O)CO [Streptozocin] | 0.968 |
| O=C1Nc2cc(Br)ccc2/C1=C1/Nc2ccccc2/C1=N\O | 0.809 |
| Cn1cc(C2=C(c3ccc(Cl)cc3Cl)C(=O)NC2=O)c2ccccc21 | 1 |
| O=C(N/N=C/c1ccc([N+](=O)[O-])o1)c1ccc(O)cc1 [Nifuroxazide] | 1.22 |
| CCOc1cc2ncc(C#N)c(Nc3ccc(OCc4ccccn4)c(Cl)c3)c2cc1NC(=O)/C=C/CN(C)C [Neratinib] | 0.879 |
| Cc1cc(NC(=O)c2cccc(NC(=O)/C=C/CN(C)C)c2)ccc1Nc1nccc(-c2cccnc2)n1 | 0.951 |
| Cc1cn([C@@H]2C[C@@H](O)[C@H](CO)O2)c(=O)[nH]c1=O [Telbivudine] | 1.06 |
| NC(=O)c1ncn([C@@H]2O[C@H](CO)[C@@H](O)[C@H]2O)c1O [Mizoribine] | 1.1 |
| COc1cc2c(cc1O)[C@@H](Cc1ccc(O)c(Oc3ccc(C[C@@H]4c5cc(OC)c(OC)cc5CCN4C)cc3)c1)N(C)CC2 [Daurisoline] | 1.11 |
| CNCCN(C)Cc1cn[nH]c1-c1ccc(OC2CC(OCCC3CCOCC3)C2)cc1 (stereo not given) | 1.13 |

| SMILES | cell viability |
| --- | --- |
| C[C@@H]1CN(c2c(F)c(N)c3c(=O)c(C(=O)O)cn(C4CC4)c3c2F)C[C@H](C)N1 [Sparfloxacin] | 1.05 |
| CCNC(=O)c1noc(-c2cc(Cl)c(O)cc2O)c1-c1ccc(OC)cc1 | 0.237 |
| CS(=O)(=O)Nc1cc(-c2ccc3ncnc(Nc4ccc(F)c(Cl)c4)c3c2)cnc1Cl | 1.08 |
| CCOC(=O)c1ccc(N2NC(=O)C(=Cc3ccc([N+](=O)[O-])o3)C2=O)cc1 | 1.06 |
| O=C(O)c1ccc(CN2C[C@@H]3C[C@H]2CN3Cc2ccc(Oc3ccc(-c4ncco4)cc3)cc2)cc1 [Acebilustat] | 1.05 |
| NC(=O)c1[nH]cnc1N [4-Amino-5-imidazolecarboxamide] | 1.23 |
| N#CN=C(NCCCCCCOc1ccc(Cl)cc1)Nc1ccncc1 | 0.0557 |
| CCn1cc(C(=O)O)c(=O)c2cc(F)c(N3CCN(C)CC3)cc21 [Pefloxacin Mesylate Dihydrate] | 1.04 |
| C=CC(=O)Nc1cccc(Nc2nc(Nc3ccc(NC4CN(CCF)C4)cc3OC)ncc2C(F)(F)F)c1 | 0.955 |
| Cc1cc(Nc2cc(Cl)nc(Oc3ccc([N+](=O)[O-])cc3)n2)n[nH]1 [Autophinib] | 1.2 |
| CCn1cc(C(=O)O)c(=O)c2cc(F)c(N3CCNC(C)C3)c(F)c21 (stereo not given) [Lomefloxacin] | 1.32 |
| CCn1cc(C(=O)O)c(=O)c2cc(F)c(N3CCNC(C)C3)c(F)c21 (stereo not given) [Lomefloxacin hydrochloride] | 0.996 |
| CS(=O)(=O)Nc1ccc([N+](=O)[O-])cc1Oc1ccccc1 [Nimesulide] | 0.932 |
| NC(=O)c1nc(-c2c(F)cccc2Cl)oc1Nc1ccc(C(=O)N2CCOCC2)cc1 | 0.949 |
| CNC(=C[N+](=O)[O-])NCCSCc1csc(CN(C)C)n1 [Nizatidine] | 1.13 |
| CC(C)=CCC[C@](C)(O[C@@H]1O[C@H](CO)[C@@H](O)[C@H](O)[C@H]1O)[C@H]1CC[C@]2(C)[C@@H]1[C@H](O)C[C@@H]1[C@@]3(C)CC[C@H](O)C(C)(C)[C@@H]3[C@@H](O[C@@H]3O[C@H](CO)[C@@H](O)[C@H](O)[C@H]3O[C@@H]3OC[C@@H](O)[C@H](O)[C@H]3O)C[C@]12C [Notoginsenoside R1] | 1.11 |
| O=c1c(O)c(-c2ccc(O)cc2)oc2c(O)c(O)cc(O)c12 [Herbacetin] | 0.981 |
| OCc1ccccc1 [Benzyl alcohol] | 1.05 |
| CCC1=C[C@@H]2CN(C1)Cc1c([nH]c3ccccc13)[C@@](C(=O)OC)(c1cc3c(cc1OC)N(C)[C@H]1[C@@](O)(C(=O)OC)[C@H](OC(C)=O)[C@]4(CC)C=CCN5CC[C@]31[C@@H]54)C2 [Vinorelbine Tartrate] | 0.934 |
| CC(C)CN(C[C@@H](O)[C@H](Cc1ccccc1)NC(=O)O[C@H]1CCOC1)S(=O)(=O)c1ccc(N)cc1 [Amprenavir] | 1.13 |
| CC1(C)[C@@H](O[C@H]2O[C@H](C(=O)O)[C@@H](O)[C@H](O)[C@H]2O[C@@H]2O[C@H](C(=O)O)[C@@H](O)[C@H](O)[C@H]2O)CC[C@]2(C)[C@H]3C(=O)C=C4[C@@H]5C[C@@](C)(C(=O)O)CC[C@]5(C)CC[C@@]4(C)[C@]3(C)CC[C@@H]12 [Glycyrrhizin] | 1.3 |
| CC1(C)[C@@H](O[C@H]2O[C@H](C(=O)O)[C@@H](O)[C@H](O)[C@H]2O[C@@H]2O[C@H](C(=O)O)[C@@H](O)[C@H](O)[C@H]2O)CC[C@]2(C)[C@H]3C(=O)C=C4[C@@H]5C[C@@](C)(C(=O)O)CC[C@]5(C)CC[C@@]4(C)[C@]3(C)CC[C@@H]12 [Diammonium Glycyrrhizinate] | 1.2 |
